Results taken from the supplement of paper PMC4604168 (melanoma cell lines).
Some of the results follow. Single values are uncertain, as repeats are few or missing.

Test system: WM3526
Test: cell count relative to DMSO control; melanoma cells; higher = more viable cells
Details: library dose: standard library concentration; 72 h
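Further: cells treated in 1,536-well plates, then fixed and DAPI-stained, with nuclei counted from automated high-throughput microscope images.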

Row | Compound | cell count [%]
1 | NC(=O)c1ccc(N(C(N)=O)c2c(F)cccc2F)nc1-c1ccc(F)cc1F + O=C1NC(=O)/C(=C/c2ccc(-c3ccc(F)cc3O)o2)S1 [AS252424] (first compound 2 µM, partner dose 5 µM) | 101
2 | NC(=O)c1ccc(N(C(N)=O)c2c(F)cccc2F)nc1-c1ccc(F)cc1F + COc1ccc(COc2ccc(Cc3cnc(N)nc3N)cc2OC)cc1 [GW2580] (first compound 2 µM, partner dose 5 µM) | 80.3
3 | NC(=O)c1ccc(N(C(N)=O)c2c(F)cccc2F)nc1-c1ccc(F)cc1F + O=C(O)C(=O)Nc1sc2c(c1C(=O)O)CCNC2 [TCS401] (first compound 2 µM, partner dose 8.33333 µM) | 88.7
4 | CC(C)(C)c1cnc(CSc2cnc(NC(=O)C3CCNCC3)s2)o1 + CC(C)CCN1c2nc(Nc3cc(F)c(O)c(F)c3)ncc2N(C)C(=O)C1C [BID1870] (first compound 0.05 µM, partner dose 1 µM) | 56.3
5 | COc1cc2c(Oc3ccc4[nH]c(C)cc4c3F)ncnc2cc1OCCCN1CCCC1 [cediranib] + COc1ccc(-c2ccc3c(N4CCOCC4)nc(N4C[C@@H](C)O[C@@H](C)C4)nc3n2)cc1CO [KU0063794] (first compound 2 µM, partner dose 0.1 µM) | 64.9
6 | CCc1ccc(CCOc2ccc(CC3SC(=O)NC3=O)cc2)nc1 (stereo not given) [pioglitazone] + Cn1cc(/C=C2\C(=O)Nc3cccnc32)c2ccccc21 [GW441756] (first compound 10 µM, partner dose 2 µM) | 90.8
7 | NC(=O)c1ccc(N(C(N)=O)c2c(F)cccc2F)nc1-c1ccc(F)cc1F + O=c1cc(-c2cccc3c2Sc2ccccc2S3)oc(N2CCOCC2)c1 [KU55933] (first compound 2 µM, partner dose 5 µM) | 88.8
8 | CN(NC(=O)CC(=O)NN(C)C(=S)c1ccccc1)C(=S)c1ccccc1 + CCc1ccc(CCOc2ccc(CC3SC(=O)NC3=O)cc2)nc1 [pioglitazone] (first compound 0.03 µM, partner dose 10 µM) | 81.8
9 | NC(=O)c1ccc(N(C(N)=O)c2c(F)cccc2F)nc1-c1ccc(F)cc1F + c1cc(-c2cnn3cc(-c4ccc(OCCN5CCCCC5)cc4)cnc23)ccn1 [Dorsomorphin] (first compound 2 µM, partner dose 2 µM) | 94.4
10 | Cc1ccc(NC(=O)c2cccc(N(C)C)c2)cc1NC(=O)c1ccc(O)cc1 + COc1ccc(-c2ccc3c(N4CCOCC4)nc(N4C[C@@H](C)O[C@@H](C)C4)nc3n2)cc1CO [KU0063794] (first compound 10 µM, partner dose 0.1 µM) | 70.7
11 | NC(=O)c1ccc(N(C(N)=O)c2c(F)cccc2F)nc1-c1ccc(F)cc1F + CCN(CC)CCCCNc1ncc2cc(-c3cc(OC)cc(OC)c3)c(NC(=O)NC(C)(C)C)nc2n1 [PD173074] (first compound 2 µM, partner dose 0.5 µM) | 123
12 | CCCCCCCCc1ccc(CCC(N)(CO)CO)cc1 [fingolimod] + Oc1nc(-c2ccc(C(F)(F)F)cc2)nc2c1CSCC2 [XAV939] (first compound 10 µM, partner dose 10 µM) | 81.5
13 | NC(=O)c1ccc(N(C(N)=O)c2c(F)cccc2F)nc1-c1ccc(F)cc1F + COc1cc2ncnc(Nc3ccc(Oc4ccccc4)cc3)c2cc1OC [SrcI1] (first compound 2 µM, partner dose 10 µM) | 66.3
14 | CCCCCCCCc1ccc(CCC(N)(CO)CO)cc1 [fingolimod] + Oc1cc(-c2nc(-c3ccccc3)[nH]c2-c2ccncc2)ccc1Cl [L779450] (first compound 10 µM, partner dose 1 µM) | 15.4
15 | NC(=O)c1ccc(N(C(N)=O)c2c(F)cccc2F)nc1-c1ccc(F)cc1F + Oc1cc(-c2nc(-c3ccccc3)[nH]c2-c2ccncc2)ccc1Cl [L779450] (first compound 2 µM, partner dose 1 µM) | 62.2
16 | COc1cc2c(Oc3ccc4[nH]c(C)cc4c3F)ncnc2cc1OCCCN1CCCC1 [cediranib] + COC(=O)c1sccc1S(=O)(=O)Nc1ccc(Nc2ccccc2)cc1OC [GSK0660] (first compound 2 µM, partner dose 5 µM) | 72.8
17 | NC(=O)c1ccc(N(C(N)=O)c2c(F)cccc2F)nc1-c1ccc(F)cc1F + Cc1cc([N+](=O)[O-])ccc1NS(=O)(=O)c1cc(Cl)ccc1Cl [FH535] (first compound 2 µM, partner dose 5 µM) | 78.5
18 | Cc1ccc(NC(=O)c2cccc(N(C)C)c2)cc1NC(=O)c1ccc(O)cc1 + N#Cc1c(O)c2c(-c3ccc(-c4ccccc4O)cc3)csc2[nH]c1=O [A769662] (first compound 10 µM, partner dose 10 µM) | 94.3

Row | Compound | cell count [%]
19 | NC(=O)c1ccc(N(C(N)=O)c2c(F)cccc2F)nc1-c1ccc(F)cc1F + COc1cc(N2CCC(N3CCN(C)CC3)CC2)ccc1Nc1ncc(Cl)c(Nc2ccccc2S(=O)(=O)C(C)C)n1 [NVP-TAE684] (first compound 2 µM, partner dose 0.4 µM) | 82.1
20 | CCc1ccc(CCOc2ccc(CC3SC(=O)NC3=O)cc2)nc1 (stereo not given) [pioglitazone] + COc1ccc2c(c1)CCC1C2CCC2(C)C(NCCCCCCN3C(=O)C=CC3=O)CCC12 [U73122] (first compound 10 µM, partner dose 2 µM) | 77.3
21 | NC(=O)c1ccc(N(C(N)=O)c2c(F)cccc2F)nc1-c1ccc(F)cc1F + COc1ccc2c(c1)CCC1C2CCC2(C)C(NCCCCCCN3C(=O)C=CC3=O)CCC12 [U73122] (first compound 2 µM, partner dose 2 µM) | 88.5
22 | NC(=O)c1ccc(N(C(N)=O)c2c(F)cccc2F)nc1-c1ccc(F)cc1F + O=S(=O)(c1ccccc1)N(CC(F)(F)F)c1ccc(C(O)(C(F)(F)F)C(F)(F)F)cc1 [T0901317] (first compound 2 µM, partner dose 7 µM) | 93.3
23 | CCCCCCCCc1ccc(CCC(N)(CO)CO)cc1 [fingolimod] + Cc1cc([N+](=O)[O-])ccc1NS(=O)(=O)c1cc(Cl)ccc1Cl [FH535] (first compound 10 µM, partner dose 5 µM) | 37.9
24 | CCCCCCCCc1ccc(CCC(N)(CO)CO)cc1 [fingolimod] + COc1ccc2c(c1)CCC1C2CCC2(C)C(NCCCCCCN3C(=O)C=CC3=O)CCC12 [U73122] (first compound 10 µM, partner dose 2 µM) | 30.6
25 | NC(=O)c1ccc(N(C(N)=O)c2c(F)cccc2F)nc1-c1ccc(F)cc1F + COC(=O)c1sccc1S(=O)(=O)Nc1ccc(Nc2ccccc2)cc1OC [GSK0660] (first compound 2 µM, partner dose 5 µM) | 85
26 | CCCCCCCCc1ccc(CCC(N)(CO)CO)cc1 [fingolimod] + Cc1cc(Nc2cc(N3CCN(C)CC3)nc(/C=C/c3ccccc3)n2)n[nH]1 [ENMD2076] (first compound 10 µM, partner dose 0.2 µM) | 45.1
27 | NC(=O)c1ccc(N(C(N)=O)c2c(F)cccc2F)nc1-c1ccc(F)cc1F + COc1ccc(-c2ccc3c(N4CCOCC4)nc(N4C[C@@H](C)O[C@@H](C)C4)nc3n2)cc1CO [KU0063794] (first compound 2 µM, partner dose 0.1 µM) | 79.2
28 | CCCCCCCCc1ccc(CCC(N)(CO)CO)cc1 [fingolimod] + O=S(=O)(c1ccccc1)N(CC(F)(F)F)c1ccc(C(O)(C(F)(F)F)C(F)(F)F)cc1 [T0901317] (first compound 10 µM, partner dose 7 µM) | 42.7
29 | CCCCCCCCc1ccc(CCC(N)(CO)CO)cc1 [fingolimod] + c1cc(-c2cnn3cc(-c4ccc(OCCN5CCCCC5)cc4)cnc23)ccn1 [Dorsomorphin] (first compound 10 µM, partner dose 2 µM) | 53.9
30 | CC(C)(C)c1cnc(CSc2cnc(NC(=O)C3CCNCC3)s2)o1 + NCC(=O)Nc1ccc(-n2nc(C(F)(F)F)cc2-c2ccc3c(ccc4ccccc43)c2)cc1 [OSU03012] (first compound 0.05 µM, partner dose 5 µM) | 55.6
31 | NC(=O)c1ccc(N(C(N)=O)c2c(F)cccc2F)nc1-c1ccc(F)cc1F + O=C(Nc1ccccc1)c1cc([N+](=O)[O-])ccc1Cl [GW9662] (first compound 2 µM, partner dose 10 µM) | 63
32 | CCCCCCCCc1ccc(CCC(N)(CO)CO)cc1 [fingolimod] + N#Cc1c(O)c2c(-c3ccc(-c4ccccc4O)cc3)csc2[nH]c1=O [A769662] (first compound 10 µM, partner dose 10 µM) | 33.9
33 | CCCCCCCCc1ccc(CCC(N)(CO)CO)cc1 [fingolimod] + CC(C)CCN1c2nc(Nc3cc(F)c(O)c(F)c3)ncc2N(C)C(=O)C1C [BID1870] (first compound 10 µM, partner dose 1 µM) | 51.4
34 | NC(=O)c1ccc(N(C(N)=O)c2c(F)cccc2F)nc1-c1ccc(F)cc1F + N#Cc1c(O)c2c(-c3ccc(-c4ccccc4O)cc3)csc2[nH]c1=O [A769662] (first compound 2 µM, partner dose 10 µM) | 112
35 | CCCCCCCCc1ccc(CCC(N)(CO)CO)cc1 [fingolimod] + O=C(O)c1ccc(-c2c[nH]c3ncc(-c4ccccc4)cc23)cc1C1CCCC1 [GSK650394] (first compound 10 µM, partner dose 0.8 µM) | 22
